Source: US3985779A, “M-phenoxyphenyl propionic acid derivatives and preparation thereof” (Eisai Co., Ltd., priority 1973, dated 1976)
Where two headings read alike, the source gives them in different places.

How the values were obtained:
[1] = system: ARRS-induced edema; test: Inhibitory activity on anti-rat-rabbit serum (ARRS)-induced edema in rats (Experiment D); type: in vivo
Method: Inhibitory activity on anti-rat-rabbit serum (ARRS)-induced edema in rats Similar Experiments was carried out by using ARRS as irritant substance.

[2] = system: Dextran-induced edema; test: Inhibitory activity on dextran-induced edema in rats (Experiment C); type: in vivo
Method: Inhibitory activity on dextran-induced edema in rats Experiment was carried out in the manner same as those of the preceding Experiments in which dextran was employed as irritant substance.

[3] = system: granuloma induced by Formalin Filter paper Pellet; settings: 6 days
[4] = in vivo; settings: mouse, po
Method: Comparison of toxicity of the phenyl propionic acid derivatives of the present invention and that of the other known anti-inflammatory agents was carried out in mice.

[5] = system: yeast-induced pyrexia; test: Antipyretic activity to the yeast-treated rats (Experiment I); type: in vivo, rats (Wistar strain male)
Method: To Wistar strain male rats having about 300 - 350 grs. body weight, an aqueous suspension of yeast was subcutaneously injected to induce pyrexia.
At the lapse of 4 hours since the dose of the yeast suspension, the compounds under test given in hereinaftermentioned Table 10 in a form of suspension in a 5% gum arabic aqueous solution are orally administered. The rectal temperatures of the rats were measured periodically by means of a thermister-type thermometer sold by Japan Koden K.K. As control, said 5% gum arabic aqueous solution alone was administered.

Row | SMILES | % of Inhibition ([1]; after 2 hrs, oral 10 mg/kg) | Edema D. ± S.E. ([1]; after 2 hrs, oral 10 mg/kg) | % of Inhibition ([1]; after 2 hrs, oral 50 mg/kg) | Edema D. ± S.E. ([1]; after 2 hrs, oral 50 mg/kg) | % of Inhibition ([1]; after 3 hrs, oral 10 mg/kg) | Edema D. ± S.E. ([1]; after 3 hrs, oral 10 mg/kg) | % of Inhibition ([1]; after 3 hrs, oral 50 mg/kg) | Edema D. ± S.E. ([1]; after 3 hrs, oral 50 mg/kg) | % of Inhibition ([2]; after 2 hrs, oral 10 mg/kg) | Edema D. ± S.E. ([2]; after 2 hrs, oral 10 mg/kg) | % of Inhibition ([2]; after 2 hrs, oral 50 mg/kg) | Edema D. ± S.E. ([2]; after 2 hrs, oral 50 mg/kg) | % of Inhibition ([2]; after 3 hrs, oral 10 mg/kg) | Edema D. ± S.E. ([2]; after 3 hrs, oral 10 mg/kg) | % of Inhibition ([2]; after 3 hrs, oral 50 mg/kg) | Edema D. ± S.E. ([2]; after 3 hrs, oral 50 mg/kg) | Adrenal ([3]; daily oral 10 mg/kg) | Thymus ([3]; daily oral 10 mg/kg) | Adrenal ([3]; daily oral 50 mg/kg) | Thymus ([3]; daily oral 50 mg/kg) | other results
1 | CC(C(=O)O)c1cccc(Oc2ccc(F)cc2)c1 (stereo not shown) [(7)] | 3% | .661 ± .085 | 12% | .601 ± .035 | 15% | .608 ± .076 | 19% | .581 ± .054 | 12% | .736 ± .038 | 10% | .750 ± .073 | 8% | .693 ± .037 | 6% | .707 ± .053 | 44.2 mg | 427 mg | 44.8 mg | 482 mg | 
2 | CC(C(=O)O)c1cccc(Oc2ccccc2)c1 (stereo not shown) [Compound (1), reference compound] | 13% | .593 ± .053 | 9% | .620 ± .053 | 15% | .620 ± .053 | 21% | .566 ± .036 | 8% | .771 ± .022 | 10% | .751 ± .060 | 5% | .710 ± .036 | 16% | .631 ± .025 | 37.2 mg | 588 mg | 43.4 mg | 502 mg | LD50 [4]: 1400 mg/kg; Change in rectal temperature, mean ± S.E. ([5]; 1 hr, 1.25 mg/kg p.o.): +0.18 ± 0.09; Change in rectal temperature, mean ± S.E. ([5]; 1 hr, 20 mg/kg p.o.): -0.48 ± 0.22; Change in rectal temperature, mean ± S.E. ([5]; 1 hr, 80 mg/kg p.o.): -0.80 ± 0.17; Change in rectal temperature, mean ± S.E. ([5]; 1 hr, 160 mg/kg p.o.): -0.50 ± 0.11; Change in rectal temperature, mean ± S.E. ([5]; 3 hrs, 1.25 mg/kg p.o.): +0.03 ± 0.22; Change in rectal temperature, mean ± S.E. ([5]; 3 hrs, 5 mg/kg p.o.): -0.48 ± 0.11; Change in rectal temperature, mean ± S.E. ([5]; 3 hrs, 20 mg/kg p.o.): -0.85 ± 0.28; Change in rectal temperature, mean ± S.E. ([5]; 3 hrs, 80 mg/kg p.o.): -1.00 ± 0.04; Change in rectal temperature, mean ± S.E. ([5]; 3 hrs, 160 mg/kg p.o.): -0.90 ± 0.14; Change in rectal temperature, mean ± S.E. ([5]; 5 hrs, 1.25 mg/kg p.o.): +0.05 ± 0.17; Change in rectal temperature, mean ± S.E. ([5]; 5 hrs, 5 mg/kg p.o.): -0.65 ± 0.19; Change in rectal temperature, mean ± S.E. ([5]; 5 hrs, 20 mg/kg p.o.): -0.68 ± 0.35; Change in rectal temperature, mean ± S.E. ([5]; 5 hrs, 80 mg/kg p.o.): -1.15 ± 0.11; Change in rectal temperature, mean ± S.E. ([5]; 5 hrs, 160 mg/kg p.o.): -0.88 ± 0.12
